Results taken from PMC6919601, “Identification of Plasmodium dipeptidyl aminopeptidase allosteric inhibitors by high throughput screening” (PLoS ONE, 2019).
Out of some 110,000 compounds screened, about 230 (0.21%) showed an effect of 50% or more. The list shows a part of the results.

Target: DPAP1 (Plasmodium falciparum, UniProt Q8IIJ9)
Assay: primary screen, percent inhibition; read by cleavage of a fluorogenic dipeptide substrate; higher = more effect of the substance
Design: species or system P. falciparum D10 trophozoite lysates; single well
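Note: 30 min substrate incubation versus DMSO and 10 µM JCP410 controls.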

Chain of DPAP1 (Q8IIJ9 whole entry, looked up): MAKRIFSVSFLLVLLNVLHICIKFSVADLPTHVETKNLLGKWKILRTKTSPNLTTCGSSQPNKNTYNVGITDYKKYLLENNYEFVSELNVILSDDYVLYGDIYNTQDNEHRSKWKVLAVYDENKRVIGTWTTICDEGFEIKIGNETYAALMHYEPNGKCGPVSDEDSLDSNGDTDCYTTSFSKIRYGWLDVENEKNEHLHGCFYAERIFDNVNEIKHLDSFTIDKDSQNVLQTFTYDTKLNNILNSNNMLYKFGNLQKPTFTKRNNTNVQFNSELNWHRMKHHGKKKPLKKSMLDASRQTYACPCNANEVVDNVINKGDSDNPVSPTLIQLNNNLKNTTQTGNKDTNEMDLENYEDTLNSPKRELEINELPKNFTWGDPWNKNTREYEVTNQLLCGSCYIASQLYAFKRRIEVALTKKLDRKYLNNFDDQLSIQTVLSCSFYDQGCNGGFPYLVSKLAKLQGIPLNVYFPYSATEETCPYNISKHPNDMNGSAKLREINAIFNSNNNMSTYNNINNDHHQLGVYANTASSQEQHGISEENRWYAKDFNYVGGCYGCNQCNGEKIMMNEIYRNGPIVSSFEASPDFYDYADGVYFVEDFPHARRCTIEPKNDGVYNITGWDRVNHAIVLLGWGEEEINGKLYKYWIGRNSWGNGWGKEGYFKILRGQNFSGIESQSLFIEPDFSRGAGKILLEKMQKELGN

Row | SMILES | % Inhibition @ 10 uM [%]
1 | CC1CCc2nn(CC(=O)NCCc3c[nH]c4ccccc34)cc2C1 (stereo not shown) | -3.35
2 | Cc1ccccc1Cn1cc(CCCC(=O)NCCN2CCOCC2)c2ccccc21 | 1.92
3 | COc1cc(/C=C2/SC(=O)N(Cc3ccccc3F)C2=O)cc(OC)c1O | 4.74
4 | NC(=O)C1CCN(C(=O)Cn2ncc3c4ccccc4n(Cc4ccccc4)c3c2=O)CC1 | -1.58
5 | N#Cc1cc2c(nc1SCc1ccccc1F)CCC2 | 0.317
6 | Cc1ccc(-c2nc(C#N)c(N3CCCCC3)o2)cc1 | 1.87
7 | O=C(NCCc1ccccc1)c1ccc(Cl)c(Cl)c1 | -2.03
8 | CC(=O)c1ccc(OCC(O)Cn2c[n+](C)c3ccccc32)cc1 (stereo not shown) | 1.84
9 | COc1ccc(NC(=O)c2cccc(S(=O)(=O)Nc3cccc(C)c3)c2)cc1 | -9.29
10 | O=C1CCCCCN1C(=O)c1cccc(C(=O)N2CCCCCC2=O)n1 | -2.5
11 | CCOC(=O)c1sc2nccc(N(C)C)c2c1N | 0.484
12 | Cc1ccc(NC(=O)CN2C(=O)S/C(=C\c3cccn3C)C2=O)cc1C | -10.8
13 | CCCC(=O)c1c(Nc2ccccc2)cc(C)oc1=O | 0.605
14 | CC(=O)Nc1ccc(NC(=O)Cn2nc(C(F)(F)F)cc2C2CC2)cc1 | -4.96
15 | CSc1ccccc1NC1CCN(C)CC1 | -5.44
16 | Cc1ccc(NC(=O)COc2ccc(S(=O)(=O)NC3CCCC3)cc2)cc1Cl | -0.872
17 | CNC(=O)C1CCCN(C(=O)c2ccc(-n3ccc4ccccc43)s2)C1 (stereo not shown) | -2.46
18 | COc1ccc(-c2c(C)nn3c(NCc4ccccn4)cc(C)nc23)cc1OC | -5.58
19 | O=C1CC(NC2CC2)C(=O)N1c1ccccc1 (stereo not shown) | -0.865
20 | CN(CCCNC(=O)c1cc(-c2cccnc2)nc2ccccc12)C1CCCCC1 | -0.519
21 | Cc1ccc(CNS(=O)(=O)c2cc(F)ccc2CN2C(=O)c3cccnc3C2=O)o1 | -7.11
22 | Cc1nc(NC(=O)CCCOc2ccc(Cl)cc2Cl)sc1C | 0.331
23 | COc1ccc(CCNCc2c(C(=O)O)n(Cc3ccccc3)c3ccccc23)c(OC)c1 | 5.09
24 | COc1cccc(/C=C/C(=O)c2c(C)cc(C)nc2O)c1OC | 2.41
25 | CN(CCc1ccccc1)C1CCN(Cc2ccccc2)CC1 | 1.08
26 | N#CCNC(=O)[C@H](CC1CCCCC1)NC(=O)c1c[nH]cn1 | 4.33

Row | SMILES | % Inhibition @ 10 uM [%]
27 | O=C1C2C3CCC(C3)C2C(=O)N1c1ccccc1 (stereo not shown) | -4.72
28 | O=C(NCc1cccnc1)NC1(C(F)(F)F)Oc2ccc(Cl)cc2O1 (stereo not shown) | -2.14
29 | Cc1[nH]c2c(C)cccc2c1CCNC(=O)c1cc2cc(Cl)ccc2oc1=O | -2.19
30 | CCCN1CCC(N2CCN(c3ccc(F)cc3)CC2)CC1 | -1.42
31 | Cc1cc(CNC(=O)Cn2nc(C)c(Br)c2C)c2ccccc2n1 | -5.96
32 | Cc1ccc(C)c(S(=O)(=O)NCC(=O)NCc2ccco2)c1 | -4.72
33 | Cc1nc2sc(C(=O)c3ccc(F)cc3)c(N)c2c(C)c1C | -4.31
34 | Cc1cc(C)n2nc(-c3ccc(Cl)cc3)cc2n1 | 7.68
35 | CCOc1cnn(C)c(=O)c1OCC | -3.04
36 | COC(=O)c1cccc(OCC(=O)Nc2nn(-c3ccccc3)nc2C(N)=O)c1 | -4.42
37 | O=C(COc1ccc(S(=O)(=O)N2CCCC2)cc1)NCC1CCCO1 (stereo not shown) | 30.4
38 | CN(C)CCCNc1nc(-c2ccccc2)nc2ccccc12 | -3.23
39 | c1ccc(C(c2ccccc2)c2nn3c(-c4ccncc4)nnc3s2)cc1 | 8.94
40 | OC(c1ccccc1)c1nccc2ccccc12 (stereo not shown) | 1.03
41 | O=C(Nc1nc(-c2ccccc2)cs1)C1c2ccccc2Oc2ccccc21 | -0.467
42 | CC(C)C(=O)NCCCc1nc2ccccc2n1C | -2.28
43 | Cc1ccc(-c2noc(CCCC(N)=O)n2)cc1 | -2.92
44 | COc1ccc(-c2csc3ncn(CC(=O)Nc4ccc(Cl)cc4)c(=O)c23)cc1OC | 2.76
45 | O=C(NCCc1c[nH]c2ccccc12)c1ccc(S(=O)(=O)N2CCCCC2)cc1 | -2.5
46 | CCCOc1ccc(C(=O)Nc2nc(C3COc4ccccc4O3)cs2)cc1 (stereo not shown) | -3.49
47 | CC1CC(=O)Nc2ccccc2N1C(=O)c1ccccc1Cl (stereo not shown) | -3.95
48 | O=C(c1ccc(CNc2c(N3CCCCC3)c(=O)c2=O)cc1)N1CCCCC1 | 5.65
49 | Cc1ccccc1Cn1cc(NC(=O)c2ccc(F)cc2)cn1 | -0.67
50 | OC1(C#CCN2CCCCCC2)CCCCC1 | 0.00178
51 | CCn1nc(N)c2c(C)c(Cl)c(C)nc21 | -0.624
52 | O=C(NC1CCCC1)N1CCC2(CC1)Oc1ccccc1C(=O)N2Cc1ccc(F)cc1 | -1.08

Row | SMILES | % Inhibition @ 10 uM [%]
53 | Cc1c(C(=O)Nc2ccccc2)sc2ncn(CC(=O)NCCc3ccccc3)c(=O)c12 | -6.2
54 | Fc1cccc(CNC2CCN(CCc3ccccc3)CC2)c1 | -0.0494
55 | O=C(NC(c1ccccc1)c1ccccc1)c1ccco1 | -1.66
56 | Cc1nc2ccc(C(=O)O)cc2s1 | 0.221
57 | N#Cc1c(NC(=O)c2cccc(S(=O)(=O)NCc3ccccc3)c2)sc2c1CCCC2 | -3.9
58 | COc1ccc(C2c3c(n(C)c4ccccc34)C(=O)N2CC(=O)NCc2ccc(F)cc2)cc1 (stereo not shown) | -1.75
59 | C/C(Cl)=C\Cn1c(=O)c2c(nc3n2CCCN3c2ccccc2)n(C)c1=O | 0.385
60 | CCOC(=O)/C(C#N)=C1/C=Cc2ccccc2N1CC | 1.7
61 | CCN(CC)CCOC(=O)c1cccc2c1-c1ccccc1C2=O | -3.63
62 | Cc1cccc(N(CC(=O)O)CC(=O)O)c1 | -0.0369
63 | c1cncc(CNC2CCCCCCC2)c1 | -2.03
64 | COc1ccc(S(=O)Cc2ccc(C(=O)N3CCC(N4CCCCC4)CC3)o2)cc1 (stereo not shown) | 2.03
65 | CSc1ccc(COC(=O)N[C@@H](CC(C)C)C(=O)NCC#N)cc1 | -1.41
66 | CC1=C(C(=O)Nc2ccc(Br)cn2)C(c2ccccn2)C2=C(O)CC(C)(C)CC2=N1 (stereo not shown) | 0.385
67 | CCCC[C@H](NC(=O)[C@H](CC(C)C)NC(=O)N1CCOCC1)C(=O)c1nc2ccccc2o1 | -0.214
68 | COc1ccc(OC)c(NC(=O)c2cnccn2)c1 | -2.53
69 | CC(NC(=O)c1cc(-c2ccc(F)cc2)on1)c1ccccc1 (stereo not shown) | -0.601
70 | CC1=NOC(=O)C1C(c1cccc(Br)c1)c1c(C)nn(-c2ccccc2)c1O (stereo not shown) | 0.413
71 | CC(C)(C)NC(=O)C1Cc2ccccc2CN1S(=O)(=O)c1cccs1 (stereo not shown) | 3.8
72 | CC1=C(c2ccc(Cl)cc2)S(=O)(=O)N=C1NC1CCCc2ccccc21 (stereo not shown) | 5.42
73 | CC(C)(C)NC(=O)c1sc2ccccc2c1Cl | -2.42
74 | O=C(c1ccc(Br)o1)N1CCN(C/C=C/c2ccccc2)CC1 | -3.03
75 | O=C(COc1ccc(Cl)cc1Cl)NCCOC12CC3CC(CC(C3)C1)C2 | 6.42
76 | C1CCN(C2CCN(C3CCCC3)CC2)CC1 | -2.48
77 | COc1cc(/C=C2/N=C(c3ccco3)OC2=O)cc(OC)c1OC | -3.71
78 | CCCCOC(=O)c1ccc(NS(=O)(=O)c2ccc(C)cc2)cc1 | -1.38

Row | SMILES | % Inhibition @ 10 uM [%]
79 | CSc1ncc(C(=O)O)c(-c2ccccc2)n1 | 1.77
80 | CCCOc1ccc(C2C3=C(CCCC3=O)N(CC(=O)O)C3=C2C(=O)CCC3)cc1OCC | -3.39
81 | O=C(CCN1CCOCC1)Nc1ccc(OC(F)(F)F)cc1 | 1.57
82 | Cc1cc(C)c2oc(-c3cccc(NC(=O)Cn4cnc5c(=O)n(C)c(=O)n(C)c54)c3)nc2c1 | 2.95
83 | Cc1c(C)n(C)c2ccc(C(=O)N3CCN(c4ccccn4)CC3)cc12 | -6.08
84 | CCC1C(C#N)=C(N)OC2=C1C(=O)CC(C)(C)C2 (stereo not shown) | -8.63
85 | CC(=O)Nc1ccc(S(=O)(=O)Nc2cccc(Cl)c2)cc1 | 3.01
86 | COc1cccc(NC(=O)COc2cc(C)ccc2C)c1 | -6.27
87 | O=C(CCc1ccccc1)Nc1ccc(NC(=O)CCc2ccccc2)cc1 | -9.68
88 | COc1cccc(/C(O)=C/c2nc3ccc(C(F)(F)F)cc3nc2O)c1 | -3.41
89 | CC(C)CC(=O)N1CC(=O)NC(=O)C1 | -2.2
90 | COc1cc(-c2noc(CN3CCCC3)n2)cc(OC)c1OC | 1.15
91 | CCc1ccc(C2(O)C[N+](c3cc(OC)ccc3OC)=C3CCCCCN32)cc1 (stereo not shown) | -3.21
92 | CCOc1ccc(N2C(=O)CC(N3CCN(c4ncccn4)CC3)C2=O)cc1 (stereo not shown) | 4.06
93 | CCOC(=O)c1sc(N2N=C(C)/C(=C\c3ccc(OCC)c(OC)c3)C2=O)nc1C | 0.884
94 | CCN1CCN(Cc2csc(C)c2C)CC1 | -3.32
95 | O=C(OCCN1CCCCC1)c1ccc2c(c1)OCO2 | 1.62
96 | Cc1cccc(NC(=O)CN(C2CCCCC2)S(=O)(=O)c2ccc(F)cc2)c1 | 0.161
97 | CC(C(=O)Nc1nncs1)N1C(=O)C2C3C=CC(C3)C2C1=O (stereo not shown) | 4.18
98 | Cc1cccc2c1-c1sc(C(=O)Nc3nccs3)cc1CO2 | -4.85
99 | CN1CCC(N2CCN(c3ncccn3)CC2)CC1 | 2.1
100 | COc1ccc(/C=C2\N=C(c3ccc(OC)cc3Br)OC2=O)cc1 | 0.264
101 | CCCc1cc(N2CCN(c3ccccn3)CC2)n2cnnc2n1 | -3.49
102 | Cc1nc2cc(S(=O)(=O)N(C)C)ccc2n1-c1ccccc1 | 2.94
103 | CCOC(=O)c1c(NC(=S)NCc2ccccc2)sc2c1CCC1(CCCCC1)C2 | -2.15
